Hit rate of the full screen: of about 410,000 compounds, about 6,400 (1.6%) were called active. This list was built around the results that the source calls inconclusive (neither active nor inactive); the mix of calls is not that of the screen. The call rests on the fitted dose curve; in most records, active means well fitted inhibition curve with a large enough effect; inconclusive means small, poorly fitted or top-dose-only effect; inactive means no such curve, though single readings can be large or run the other way. Where the call is inconclusive, the potency comes from a doubtful curve fit.
The molecules below were run against Glucagon-like peptide 1 receptor (Homo sapiens) (UniProt P43220) (assay: qHTS of GLP-1 Receptor Inverse Agonists (Inhibition Mode)). Conditions: HEK293 GLP-1R CRE-luciferase, luminescence, 24 h, GLP-1R form is constitutively active; activity change, negative = inhibition: at 38.3 µM (top of the series) unless noted.
Chain of UniProt P43220 (P43220 whole entry, looked up): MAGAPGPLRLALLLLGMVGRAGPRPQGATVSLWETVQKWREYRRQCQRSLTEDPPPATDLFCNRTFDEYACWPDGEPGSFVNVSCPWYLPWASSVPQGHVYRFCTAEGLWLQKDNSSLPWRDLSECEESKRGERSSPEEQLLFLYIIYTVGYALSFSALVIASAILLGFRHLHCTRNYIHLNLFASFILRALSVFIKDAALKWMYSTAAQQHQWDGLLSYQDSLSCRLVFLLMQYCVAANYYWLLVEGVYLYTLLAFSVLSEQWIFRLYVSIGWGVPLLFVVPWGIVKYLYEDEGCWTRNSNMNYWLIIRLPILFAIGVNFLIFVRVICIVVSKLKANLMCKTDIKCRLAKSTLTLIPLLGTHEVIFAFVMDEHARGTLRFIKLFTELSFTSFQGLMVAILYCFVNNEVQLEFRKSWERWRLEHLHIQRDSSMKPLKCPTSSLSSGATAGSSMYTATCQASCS
Method in brief: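 Readout was luciferase luminescence, measured 12 min after detection reagent at room temperature. Beforehand, GLP-1R reporter HEK293 cells had sat 12 h, then received compounds for 24 hr at 37 deg C.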
Further: nearly all actives have a fitted effect of over 55% in size.
On the % scale 0 is the no-effect control and ±100 the full control effect; potency means the concentration at half of the fitted maximal effect; tags describe the fitted curve by direction and shape.

Activity change, negative = inhibition, inactive:
Cc1ccc(C)c(CSc2nnc(-c3cccnc3)n2N)c1 -1.45%, CC(=O)Nc1ccc(NC(=O)c2ccc(COc3ccccc3)cc2)cc1 15.4%, COc1ccc(OCc2cc(=O)c3ccc4c(c3o2)C=CC(C)(C)O4)cc1OC -3.44%, COc1ccc(CNS(=O)(=O)c2cnc(N)nc2)c(OC)c1 7.19%, Cc1cccc(C)c1OCC(=O)NCC1(N(C)C)CCCCC1 -30%, CCN(CCn1cccn1)C(=O)c1cc(COc2ccc(F)c(F)c2)on1 -25%, O=C(CSc1nc(-c2ccccc2Cl)ns1)Nc1ccc2c(c1)OCO2 -5.29%, Cc1cc(C)c2c(=O)cc(CSCC(=O)Nc3ccccc3Cl)[nH]c2c1 -17.5%, COc1ccc(S(=O)(=O)Nc2ccc3c(c2)N(C(C)=O)CCC3)cc1F -69%, Cc1cccc(NC(=O)CN(CC2CCCO2)C(=O)c2ccc(S(C)(=O)=O)cc2)c1C (stereo unspecified) 13.3%, COc1ccc(-c2nc(C)c(CCNC(=O)C(=O)Nc3ccccc3OC)s2)cc1 -19.2%, O=C1CC(c2cc(Br)ccc2F)c2cc3c(cc2N1)CCC3 (stereo unspecified) 0%, CCOc1cc(CNC(=O)C2COc3ccccc3C2)cc(OCC)c1OCC (stereo unspecified) -9.53%, COc1ccc(Nc2nc(-c3ccc(C)cc3)nc3ccccc23)c(OC)c1 -16.3%, O=C(NC(Cc1ccccc1)C(=O)O)/C(=C\c1ccc(Cl)cc1)NC(=O)c1ccccc1 (stereo unspecified) 15.9%, Cc1ccc2[nH]c(=O)c(CN(Cc3ccc4c(c3)OCO4)Cc3nnnn3Cc3ccco3)cc2c1 6.54%, COc1ccc2c(c1)c1c(c(=O)n(Cc3ccccc3)c(=O)n1CC(=O)NCc1ccccc1Cl)n2C 9.61%

Potency, active:
CC(=O)c1ccc(NC(=O)Cn2cc(S(=O)(=O)Cc3cccc(Cl)c3)c3ccccc32)cc1 10 µM, CCc1nc2ccccc2n1CCCCOc1ccc(C)cc1 10 µM, Cc1ccc2c(Sc3ccc(Cl)cc3)c(C(=O)N3CCC(C)CC3)[nH]c2c1 10 µM, COc1ccc(C(=O)C/C(=C\C(=O)c2ccc(C)cc2)c2ccccc2)cc1 4.47 µM

Potency, inconclusive:
FC(F)(F)c1cccc(N/N=C/c2ccccc2)c1 14.1 µM [inhibitor, single point], O=[N+]([O-])c1ccccc1/C=C\C=N\N1CCN(c2ccccc2)CC1 10 µM [inhibitor, partial curve], CCOc1cc(CNC(=O)c2sc3ncnc(N(C)C4CCCCC4)c3c2C)ccc1OC 28.2 µM [inhibitor, single point], O=C(NCCC1=CCCCC1)c1cc(S(=O)(=O)N2CCCCC2)ccc1Cl 1.12 µM [inhibitor, full curve, poor fit], Cc1ccccc1NC(=O)C(C)SCc1ccccc1 (stereo unspecified) 8.91 µM [inhibitor, single point], Brc1ccccc1OCCNCc1ccccc1 11.2 µM [inhibitor, single point], CCOC(=O)C1=C(C)NC(=O)NC1c1ccccc1OCc1c(F)cccc1Cl (stereo unspecified) 12.6 µM [inhibitor, single point], CC(=O)Nc1cc(-c2cccc(C(=O)NCCN(C)C)c2)cn2c(-c3cccc(C(F)(F)F)c3)cnc12 11.2 µM [inhibitor, single point], CCN(CC)CCNC(=O)c1ccc(Cn2c(SCc3ccccc3)nc3cccnc32)cc1 10 µM [inhibitor, partial curve, poor fit], C=CCc1cccc(/C=N/NC(=O)C[n+]2ccccc2)c1O 25.1 µM [inhibitor, single point], CC1CCN(C(=S)c2ccc(-c3ccc(Cl)cc3Cl)o2)CC1 12.6 µM [inhibitor, single point], O=c1cnnc(N/N=C/c2ccccn2)[nH]1 2.82 µM [inhibitor, full curve, poor fit], CCOC(=O)C1=C(CN2CCC(C)CC2)NC(=O)NC1c1ccc(F)cc1 (stereo unspecified) 22.4 µM [inhibitor, single point], CSc1cccc(NC(=S)N2CCC(N(C)C3CCCCC3C)CC2)c1 (stereo unspecified) 8.91 µM [inhibitor, partial curve, poor fit], Clc1ccc(-c2csc(N/N=C/c3ccco3)n2)cc1 28.2 µM [inhibitor, single point], Cc1ccc(-n2c(C)cc3c2CC(C)(C)CC3=O)cc1C 28.2 µM [inhibitor, single point], Cc1ccc2nc(N3CCN(c4cccc(Cl)c4)CC3)c(-n3nc(C)cc3C)nc2c1 14.1 µM [inhibitor, single point], Clc1ccc(Sc2cc(Cl)c(-c3ccccc3)nn2)cc1 28.2 µM [inhibitor, single point], Cc1sc2ncn(Cc3ccccc3F)c(=O)c2c1C 10 µM [inhibitor, partial curve, poor fit], Cc1cccc(-c2nc(CSCC(=O)N3CCN(Cc4ccc5c(c4)OCO5)CC3)c(C)o2)c1 11.2 µM [inhibitor, partial curve, poor fit], COc1ccc(NS(=O)(=O)c2cccc(C(=O)N3CCCC(C)C3)c2)cc1 (stereo unspecified) 15.8 µM [inhibitor, single point], CCCCCCn1c(C(C)NC(=O)c2ccco2)nc2ccccc21 (stereo unspecified) 11.2 µM [inhibitor, single point], Cc1cc(Br)cc(C)c1NC(=S)NC(=O)CC(C)C 7.94 µM [inhibitor, partial curve, poor fit], COc1cc(-c2cc(OC)c3c(C)oc(C)c3c(=O)c2)ccc1OC(=O)c1ccccc1Cl 12.6 µM [inhibitor, single point], O=C(COc1ccc(Cl)cc1)Nc1ccc(-c2nc3ccccc3s2)c(O)c1 31.6 µM [inhibitor, partial curve, poor fit], Cn1c(=O)[nH]c(=O)c2c1nc(N1CCCCC1)n2C/C=N/Nc1ccc(C(=O)O)cc1 17.8 µM [inhibitor, single point], CCO[C@@H]1OC(C(=O)NCc2nc3ccccc3[nH]2)=C[C@H](C2CC2)[C@H]1CCCO 3.98 µM [inhibitor, full curve, poor fit], CN(C)/C=C/C(=O)c1ccc(OCCN(C)c2ccccn2)cc1 20 µM [inhibitor, single point], CC(C)/C(C=O)=C(/NC1CCCCC1)c1ccccc1 12.6 µM [inhibitor, partial curve, poor fit], Cc1ccc(C(C)C)c(OCC(=O)NCC2(N(C)C)CCCCC2)c1 8.91 µM [inhibitor, partial curve, poor fit], O=S(=O)(c1ccc(NC(=S)NCc2ccncc2)cc1)N1CCCCC1 28.2 µM [inhibitor, single point], Cc1ccccc1N1CC(c2nc3ccccc3n2CCC2CCCCC2)CC1=O (stereo unspecified) 8.91 µM [inhibitor, partial curve, poor fit], Cc1ccc(S(=O)(=O)Nc2ccccc2-c2nc3ccccc3[nH]c2=O)cc1 10 µM [inhibitor, partial curve], c1ccc(Oc2cccc(NC3=NCCC3)c2)cc1 22.4 µM [inhibitor, partial curve, poor fit], CCOC(=O)C1CCCN(CC(=O)Nc2ccc(C(=O)Nc3ccccc3OC)cc2)C1 (stereo unspecified) 8.91 µM [inhibitor, partial curve, poor fit], Cc1cc(NC(=O)CSCC(=O)N2CCN(c3cccc(C(F)(F)F)c3)CC2)no1 28.2 µM [inhibitor, single point], Cc1ccc(CCNC(=O)CS(=O)Cc2nc(-c3cccc(C)c3)oc2C)cc1 (stereo unspecified) 22.4 µM [inhibitor, single point], COc1ccc(C(c2nnnn2Cc2ccccc2)N2CCN(C/C=C/c3ccccc3)CC2)cc1 (stereo unspecified) 11.2 µM [inhibitor, partial curve], Cc1cc(C)cc(NC(=O)C2CCCCN2S(=O)(=O)c2ccccc2)c1 (stereo unspecified) 11.2 µM [inhibitor, partial curve, poor fit], O=[N+]([O-])c1cccc(N/N=C/c2cc([N+](=O)[O-])ccc2O)c1 0.501 µM [inhibitor, full curve, poor fit], Cc1ccc(S(=O)(=O)Nc2ccc3c(c2)C(=O)c2ccccc2-3)cc1 28.2 µM [inhibitor, single point], O=C(c1c(F)cccc1F)N1CCCC(c2nc(-c3cccs3)no2)C1 (stereo unspecified) 10 µM [inhibitor, single point], CCOC(=O)[C@]12CCCC=C1N(Cc1ccc(Cl)cc1Cl)C(=O)[C@H](CC(=O)NCc1ccc(C)o1)C2 20 µM [inhibitor, single point], CCOC(=O)c1cc2c(ccn2C)n1Cc1ccccc1C 28.2 µM [inhibitor, single point], O=S(=O)(N[C@H]1C[C@@H](NS(=O)(=O)OCC(Cl)(Cl)Cl)C2CCCCC21)OCC(Cl)(Cl)Cl (stereo partly specified) 28.2 µM [inhibitor, single point]
